# Several values for one entry are separate records, joined by “and”; a condition that tells them apart may be missing. Equal entries are not always repeated. The campaign covered roughly 410,000 compounds. About 5,000 (1.2%) were called active. This list was built around the results that the source calls inconclusive (neither active nor inactive); the mix of calls is not that of the screen. The call rests on the fitted dose curve; in most records, active means well fitted inhibition curve with a large enough effect; inconclusive means small, poorly fitted or top-dose-only effect; inactive means no such curve, though single readings can be large or run the other way. Potencies beside an inconclusive call are fits to weak or partial responses and may not hold up.
# Assay: qHTS for Inhibitors of TGF-b; further: nearly all actives have a fitted effect of over 65% in size
# Settings: HepG2 CAGA-GFP TGF-b/SMAD3 reporter, GFP fluorescence, 18 h, TGF-beta stimulated, 500 pg/mL final; series mostly up to 46.1 µM
# Procedure, shortened: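 Inhibition of TGF-beta-driven CAGA-GFP reporter expression in HEPG2 cells is measured by cellular GFP fluorescence after 18 h stimulation with 500 pg/mL recombinant TGF-beta in 1% FBS medium at 37 degrees C.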
# Potency means the concentration at half of the fitted maximal effect; tags describe the fitted curve by direction and shape.
row,Compound,Potency
1,O=C1C=C(Nc2ccc(Cl)cc2)CC(c2ccccc2)C1 (stereo not drawn),inactive
2,COc1ccccc1C(=O)Nc1ccnn1C1CCN(C(=O)c2ccoc2)CC1,"inconclusive: 0.794 µM [inhibitor, full curve, poor fit]"
3,COc1ccc(OC)c(NC(=O)Cc2nn(C)c(=O)c3ccccc23)c1,"inconclusive: 35.5 µM [inhibitor, single point]"
4,Cc1cccc(N2CCN(CC(=O)NCC3CCCCC3)CC2)c1C,active: 10 µM
5,CC(C)c1cnc2c(c1SCc1ccc([N+](=O)[O-])cc1)c(=O)n(C)c(=O)n2C,"inconclusive: 6.31 µM [inhibitor, single point]"
6,O=C(C1CCCN(S(=O)(=O)c2ccc(Br)cc2)C1)N1CCN(Cc2ccccc2)CC1 (stereo not drawn),"inconclusive: 11.2 µM [inhibitor, partial curve]"
7,COc1ccc(-c2nc(=S)[nH][nH]2)cc1,inactive
8,CCc1nc2c(OCc3ccc(C(F)(F)F)cc3)cccn2c1N(C)C(=O)c1ccco1,"inconclusive: 15.8 µM [inhibitor, single point]"
9,COc1ccc(CC(=O)Nc2ccccc2C(=O)N2CCCC2)cc1,"inconclusive: 0.126 µM [inhibitor, full curve]"
10,COC(=O)CCC(=O)N1CCCC(N2CCN(c3ccc(OC)cc3)CC2)C1 (stereo not drawn),inactive
11,COc1cc(OC)nc(Nc2nc(C(N)Cc3ccccc3)cs2)n1 (stereo not drawn),"inconclusive: 35.5 µM [inhibitor, single point]"
12,O=C1CCc2cc(S(=O)(=O)NC(C(=O)Nc3ccc(F)cc3)c3ccccc3)ccc2N1 (stereo not drawn),"inconclusive: 17.8 µM [inhibitor, single point]"
13,O=C(CSc1ncccn1)N(Cc1cccnc1)C(CCc1ccccc1)c1nc2ccccc2[nH]1 (stereo not drawn),"inconclusive: 35.5 µM [inhibitor, single point]"
14,O=C(CCCn1cnc([N+](=O)[O-])n1)Nc1ccc(Cl)c(Cl)c1,"inconclusive: 35.5 µM [inhibitor, partial curve, poor fit]"
15,O=C1CC(Cc2ccc(Cl)cc2)C(=O)N1c1ccncc1 (stereo not drawn),"inconclusive: 15.8 µM [inhibitor, single point]"
16,CCN1CCCC1CN(Cc1cc2ccc(C)cc2[nH]c1=O)C(=S)Nc1ccccc1OC (stereo not drawn),"inconclusive: 4.47 µM [inhibitor, full curve, poor fit]"
17,O=C(C/C(=N\NC(=O)c1ccccc1Br)C(F)(F)F)c1cccs1,"inconclusive: 14.1 µM [inhibitor, partial curve, poor fit]"
18,O=S(=O)(Nn1c(O)c(C=C2N=c3ccccc3=N2)sc1=S)c1ccccc1,"inconclusive: 35.5 µM [inhibitor, single point]"
19,CCOc1ccccc1Oc1c(C)oc2c(CN3CCN(C)CC3)c(O)ccc2c1=O,"inconclusive: 6.31 µM [inhibitor, single point]"
20,O=C(Nc1ccc(Cl)cc1)OC(CN1CCCCC1)C(F)(F)F (stereo not drawn),"inconclusive: 25.1 µM [inhibitor, single point]"
21,O=C(Nc1ccc(S(=O)(=O)N2CCOCC2)cc1)c1cc(S(=O)(=O)N2CCOCC2)ccc1Cl,inactive
22,O=C(NCCCCCNC(=O)c1cccnc1)c1cccnc1,"inconclusive: 17.8 µM [inhibitor, single point]"

row,Compound,Potency
1,O=C(NC1CC1)C1=C[C@@H](c2csc3ccccc23)C[C@@H](OCCCCO)O1,"inconclusive: 5.62 µM [inhibitor, single point]"
2,Cc1cccc(C)c1OCC(O)CN1CCN(c2ccccn2)CC1 (stereo not drawn),"inconclusive: 6.31 µM [inhibitor, single point]"
3,CCOC(=O)c1c(C)nc2sc3c(=O)n(-c4ccc(C(C)=O)cc4)nnc3c2c1-c1ccc(Cl)cc1,"inconclusive: 12.6 µM [inhibitor, single point]"
4,Cc1cccc(N(CC(O)Cn2c3ccccc3c3ccccc32)S(=O)(=O)c2ccc(F)cc2)c1 (stereo not drawn),"inconclusive: 8.91 µM [inhibitor, partial curve, poor fit]"
5,CC(C)c1ccc(NC(=O)c2cc3sc(Cl)cc3n2C)cc1,inactive
6,Cc1cc(C(=O)C(=O)N(C)C)c(C)n1-c1ccc([N+](=O)[O-])cc1,"inconclusive: 3.16 µM [inhibitor, single point]"
7,CSCCC(NC(=O)C1CCC(C)CC1)C(=O)Nc1ccc(NC(C)=O)cc1 (stereo not drawn),inactive
8,CS(=O)(=O)c1ccc(NC(=O)C2CC(=O)N(c3ccc4c(c3)OCCO4)C2)cc1 (stereo not drawn),inactive
9,Cc1cccc(C)c1NC(=O)CN(C)C(=O)CSC(=S)N1CCCC1,inactive
10,CC1CC(=O)N(CC(=O)Nc2ccccc2F)c2ccccc2S1(=O)=O (stereo not drawn),inactive
11,COc1ccc([C@H]2CC(=O)C=C(c3ccc(Br)c4ccccc34)C2)cc1,inactive
12,O=C(O)c1ccc(-c2noc(-c3ccc(F)cc3)n2)cc1,inactive
13,CC(=O)c1ccc(Nc2nc(C(N)Cc3ccc(C(F)(F)F)cc3)cs2)cc1 (stereo not drawn),"inconclusive: 35.5 µM [inhibitor, single point]"
14,CN(CCCNC(=O)c1cc2c(Cl)nc3ccccc3c2s1)Cc1ccccc1,"inconclusive: 35.5 µM [inhibitor, partial curve, poor fit] and inconclusive: 35.5 µM [inhibitor, single point]"
15,COC(=O)c1c(NC(=O)c2cc3ccccc3c(=O)o2)sc2c1CCCC2,inactive
16,COc1cccc(C(C)(O)c2nc(-c3csc4ccccc34)cs2)c1 (stereo not drawn),active: 17.8 µM
17,CCC(C)C1NC(=S)N(C2CCCCC2)C1=O (stereo not drawn),"inconclusive: 12.6 µM [inhibitor, partial curve, poor fit]"
18,COC(=O)c1cc2ccsc2n1CC(=O)Nc1cc(Cl)ccc1OC,"inconclusive: 35.5 µM [inhibitor, single point]"
19,CNC(=O)C1(C)Cc2c(-c3ccc4c(c3)OCO4)ccnc2O1 (stereo not drawn),inactive
20,CCSc1ccc([C@@H]2[C@@H]3C(=O)N(CC)C(=O)[C@@H]3[C@]3(C(=O)OC)CCCN23)cc1,"inconclusive: 4.47 µM [inhibitor, full curve]"
21,Cc1sc2ncnc(NC3CCN(Cc4ccccc4)CC3)c2c1C,"inconclusive: 2.82 µM [inhibitor, full curve, poor fit]"

# Source: PubChem BioAssay AID588855 (National Center for Advancing Translational Sciences (NCATS), 2011)
